The values below come from US20230201216A1, “AZELASTINE AS ANTIVIRAL TREATMENT” (priority 2020, published 2023).

The test system of this test is SARS-CoV-2. The test is classed as cell-based.

Structures can show the parent of a compound that is named as a salt.

Take `CN1CCCC(n2nc(Cc3ccc(Cl)cc3)c3ccccc3c2=O)CC1` (stereo not shown) [Azelastine-HCl]: the “protection of SARS-CoV-2 infected cells from dying” value is listed as “significantly protected from dying”.
